# In paper PMC12136788:
# The other results are listed elsewhere or left out.
# T1: UNK ZnF1-3 (human, UniProt Q9C0B0 31-174)
# T1 sequence: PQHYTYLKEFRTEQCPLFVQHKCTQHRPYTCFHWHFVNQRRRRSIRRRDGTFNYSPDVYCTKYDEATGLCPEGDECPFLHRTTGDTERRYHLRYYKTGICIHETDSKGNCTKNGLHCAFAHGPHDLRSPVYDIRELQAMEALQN
# B1: chr2:232320318:232320319:-_ENSG00000115053_ENST00000322723|hu_hu|hu_hu_hu_mus_True|28_58 (ssRNA)
# RNA: GGGAGUUCUACAGUCCGACGAUCACUAUUAAAGUCUACAAAACCAAACCCUUUGGAAGAACCAGUUUCCCGAUCAGUAACUAUCCUUGCACGAACAGAGCCCUCAAAUGACUCCUUUAAGGUCUCUUCAGUGGUAUCCUCAGACAACAGAGGAUUGAGCAUCA
# B2: chr18:77180173:77180174:+_ENSMUSG00000090000_ENSMUST00000026487|mus_hu|FALSE|FALSE (ssRNA)
# RNA: GGGAGUUCUACAGUCCGACGAUCAACCUUUCUGCAUAAAACUGUAUUAUGAGAUAGGCAAACAAUCUCACAAGAUGGUCUGAGACAUAAAAACAAAAGACAACCUAUCCAGCAUCAAUGUCCUAUUGACAAACUCAAUGAAGACAACAGAGGAUUGAGCAUCA
# B3: chr4:11166509:11166510:-_ENSMUSG00000040738_ENSMUST00000108319|mus_hu|FALSE|FALSE (ssRNA)
# RNA: GGGAGUUCUACAGUCCGACGAUCGUUGAGAUGUACUAUCAGAAGAAGGUACAAGAACAUCACAUGCUUGACAAUAGCCAGCUAACCGCUUCUCAUCUAUGGUACAAUGAAGAGAUAAUGAACCUAUCUCUGCAAUUAGUUCUUCAACAGAGGAUUGAGCAUCA
# B4: chr1:6885190:6885191:+_ENSG00000171735_ENST00000473578|hu_hu|FALSE|FALSE (ssRNA)
# RNA: GGGAGUUCUACAGUCCGACGAUCUGAACAUUUCGGCAGACAUUCAAGCAGCUUUUUCGGUAAAAAGAUUUUUACAUGACUACUAUUGCUGUUCCCAUGAUCAUCUUCUAUAGGUGGCACGGUGUUGAGAACACAGUAGGUGCUCAACAGAGGAUUGAGCAUCA
# B5: chr17:60770872:60770873:+_ENSG00000011028_ENST00000303375|hu_hu|hu_hu_hu_mus_True|8_58 (ssRNA)
# RNA: GGGAGUUCUACAGUCCGACGAUCUCUUUAAAAAAAAAAAAAAAAAGACAAACAAUAAUAGCACAUUUCGAGAAUCAUCAACUACAGUAGAGGGUCCGCUUUGAGUUUUUGUUCACAUCGUCCUGCAACGCUGUCGCGGGACUGCAACAGAGGAUUGAGCAUCA
# B6: 30248933_30249541_427_3pUTR_ENSMUSG00000024827_ENSMUST00000025778|mouse|control|control (ssRNA)
# RNA: GGGAGUUCUACAGUCCGACGAUCAAGGGUCUCUUCAAGCGGAUGCUGGCGGGGACCGUCUUCUCGAUGAGCUCAUCAAUGCUCGCCAGCCCCAGCGCCUGCAGCAUCUCCCUCCGGUCUUUGUCUCCGGGGCCGAUGUGUCUCCAACAGAGGAUUGAGCAUCA
# B7: 10608729_10609759_637_CDS_ENSG00000170222_ENST00000379774|human|control|control (ssRNA)
# RNA: GGGAGUUCUACAGUCCGACGAUCAAGUCCUUGAGGACUAUUCAGUUCCGUAUUUGGAUUGUGCUCCCUCAAUAUCUUCAUACACUGCUCGUAUUUUGGAGAAGACUGAUCCACGCCCAAGACACUCAAGUCAUAUGCAUCAAGCAACAGAGGAUUGAGCAUCA
# B8: chr11:75113396:75113397:+_ENSG00000149273_ENST00000524851|hu_hu|motif|central (ssRNA)
# RNA: GGGAGUUCUACAGUCCGACGAUCCCCUCCUAGGAGUUUGUAACGCAGAGACUCUGCCUGGGCAAUGGCACACAGACCUCGGGUGGCCACCUUUUCAGCAUAAAGCUCUACACUGCCCUCUGGAAAGCCAAACCUCUUCUGAACCAACAGAGGAUUGAGCAUCA
# B9: chr3:150289777:150289778:+_ENSG00000144895_ENST00000460851|hu_mus|FALSE|FALSE (ssRNA)
# RNA: GGGAGUUCUACAGUCCGACGAUCUUUCGCAGGCAUAAAACCAUAAACAGCGCAAAACUCAGUAGAACUGGAAUUCCAAACUACAUCAUAAAUUGGGCCAUUUUUUGGUAAUUGUACCACAGCACUUUCUCCAUUUGUUGCAAUCAACAGAGGAUUGAGCAUCA
# B10: chr12:46623017:46623018:-_ENSG00000111371_ENST00000398637|hu_hu|motif|central (ssRNA)
# RNA: GGGAGUUCUACAGUCCGACGAUCGAGUCCCAAAAUCCCACUGCCCAUAAUGGCGUUGCUUAGGUUAAAAACAGACAUGCCGGAGGAGGUUGUACCUGGAAUAUACUCAUCACACUUCUUUUUUUCCAAAUGGCUGUUUGUGAGCAACAGAGGAUUGAGCAUCA
# B11: chr19:34954956:34954957:+_ENSG00000126261_ENST00000246548|hu_mus|motif|central (ssRNA)
# RNA: GGGAGUUCUACAGUCCGACGAUCGAUCAGCAAAGUAUAGUCCUGGAGGAAGUCGUCUGCUUGAAGCCGGCUGCCGUUUCGGAUUCCAAAAUCAGACAACUUCUUGGGGUUAUUGGCUUCUGUCUCUCCCUCUUCUGAAGAUAUCAACAGAGGAUUGAGCAUCA
# B12: 148556073_148556459_5406_CDS_ENSMUSG00000063077_ENSMUST00000060537|mouse|control|control (ssRNA)
# RNA: GGGAGUUCUACAGUCCGACGAUCUUUGAAAUGCAGGUAUCCUUUCUUAGAUACCACUGAUCCCGCUCUGACUUCUUCAAUGUCUGGAACAAGAUUGAGAAAUUCAUUCUUCCCUGCUCGGGCCAAAUAGGGUGUCUCCACAGUCAACAGAGGAUUGAGCAUCA
# B13: chr4:115894766:115894767:+_ENSMUSG00000028698_ENSMUST00000030464|mus_hu|mus_mus_mus_hu_True|28_88 (ssRNA)
# RNA: GGGAGUUCUACAGUCCGACGAUCUUCCACACGGAAAUGUACUUCGGGUUUCCAACGGGCCAGUACCAGUCCGGCCAAACUACCCGAACAGGGUCCUCCCCCUCUCUUCUCUCCUCCACAACAAAAUGCCCCCGAACUUUCAAGCAACAGAGGAUUGAGCAUCA
# B14: 160215123_160215243_6580_3pUTR_ENSG00000186432_ENST00000334256|human|control|control (ssRNA)
# RNA: GGGAGUUCUACAGUCCGACGAUCCUUGAGGCAGAGGUUGCAGUGAGCCGAGAUUGCGCCACUACACUCCAGCCUGGGCCACAGAGCGAGACUGUGUCUCAAAAAAAUAAAAAUAGAAGACUGCACUAAUGCCACCAACGUGCACAACAGAGGAUUGAGCAUCA
# B15: 81634765_81635152_1842_CDS_ENSG00000153956_ENST00000356860|human|control|control (ssRNA)
# RNA: GGGAGUUCUACAGUCCGACGAUCAACAUAACCAUUAGGAUCGAUUGCAAAGUAAUACCCAUUGGGGCACAGUGUAAAACGUGGUGUCAGUCUUUUAAUAUCUUCCAAAGACACAUCUACUCCCAUCACACCAAGAAUCAGCUGCAACAGAGGAUUGAGCAUCA
# B16: chr2:48026839:48026840:+_ENSG00000116062_ENST00000540021|hu_hu|hu_hu_hu_mus_False|68_68 (ssRNA)
# RNA: GGGAGUUCUACAGUCCGACGAUCAUAGUGAGCCACUAGCGUCCUAAAUCUGGAACAGUGGCGGUCAUCUGAAAACUGGCCGAUGAAAAACUUGCCCAGUGAAGUGUCCACAAAGCAAACACCAUACACACGAGUGUGACCAGACAACAGAGGAUUGAGCAUCA
# B17: chr14:89338683:89338684:+_ENSG00000165533_ENST00000346301|hu_hu|hu_hu_hu_mus_False|68_108 (ssRNA)
# RNA: GGGAGUUCUACAGUCCGACGAUCGUGGUUGUUGUUGACCAGGGCCAGCCUGAAGCAUUGGUGGGCCAAAUUUGUAUCUCCGAUUCCCACAGCUAUGUGCCCCAGGUUGUACCAGACAUCAGCUGCCUCUUCUUCAUUUUCAGCCAACAGAGGAUUGAGCAUCA
# B18: chr11:54532201:54532202:-_ENSMUSG00000052298_ENSMUST00000064104|mus_hu|motif|central (ssRNA)
# RNA: GGGAGUUCUACAGUCCGACGAUCUAGGAUUUAAACAAACAUUUUAAUGAGAACACAAACCACUGACUCUGGCUUAACACCACACUCGGACAGAAAAGAAGAAACCUUUACAGAAAUAUUUGAAAUAUACAAAAUUCGUGCAAGCAACAGAGGAUUGAGCAUCA
# B19: chr3:51263940:51263941:+_ENSMUSG00000063273_ENSMUST00000029303|mus_mus|FALSE|FALSE (ssRNA)
# RNA: GGGAGUUCUACAGUCCGACGAUCGUAAAAUGGAUGCUGUCGAAGUACAUCUUCUAGUUUUAAUAAGUCCACAUAUGAUCUAAGGGUGAUCUUCCUCAUACAGUAUGUAUGAAAGUCAAACUGGUCAUCGGUGAUUUCUAUAAACAACAGAGGAUUGAGCAUCA
# B20: chr11:18503389:18503390:-_ENSG00000074319_ENST00000251968|hu_hu|hu_hu_hu_mus_True|48_88 (ssRNA)
# RNA: GGGAGUUCUACAGUCCGACGAUCAUUUUCCAUUUUCUCCAGAGCAGAACUGAGUUCUUCAUCCUUCUUUUUCAAAAGUUCUAUGUUUUUAUCAACCUCAGCUACUUCUUGAUCUAAGCGGGUGACCAUCUCUUCCAGUUUCUGCAACAGAGGAUUGAGCAUCA
# B21: chr8:117878989:117878990:-_ENSG00000164754_ENST00000297338|hu_hu|hu_hu_hu_mus_True|1_18 (ssRNA)
# RNA: GGGAGUUCUACAGUCCGACGAUCCCAGAGGCCCUCGUUUACUGAGGACAAAAUGUGCGUAGAACAUUUUUCUUAUUUGCUAUGAAAUAAGAAGAAACCUGGAUCUCGGCGGGGAGCUUGGGCGGGCGGGUGGCCCGGGGGAGGCAACAGAGGAUUGAGCAUCA
# B22: chr7:34932688:34932689:-_ENSMUSG00000052997_ENSMUST00000102746|mus_hu|FALSE|FALSE (ssRNA)
# RNA: GGGAGUUCUACAGUCCGACGAUCAAGAAGCUUCUUUCUUGGGUUUGGUUGUUUAUUCAAAAAAAUUGUUCUGCACUGGUCUAUUUUUCCUGAUAAAAUCUUCAAUCCUUCCAAUACUAUCAACCCAGCAAUUACUGCAUUAGUCAACAGAGGAUUGAGCAUCA
# Target: T1, UNK ZnF1-3
# Test: nsRBNS (natural sequence RNA bind-n-seq); RBNS binding buffer (assumed for nsRBNS): 25 mM Tris pH 7.5, 150 mM KCl, 3 mM MgCl2, 0.01% Triton X-100, 500 ug/ml BSA, 20 U/ml SUPERase-In, 4 C; UNK is unkempt and MSI1 is Musashi-1; names of the RNAs are library labels; protein concentration not given here; high values mean tight binding
row,Binder,binding signal [enrichment R]
1,B1,0.727
2,B2,0.919
3,B3,0.897
4,B4,0.722
5,B5,2.3
6,B6,0.515
7,B7,1.02
8,B8,0.986
9,B9,0.84
10,B10,1.37
11,B11,0.918
12,B12,0.618
13,B13,1.15
14,B14,2.24
15,B15,1.51
16,B16,1.16
17,B17,0.571
18,B18,1.81
19,B19,0.906
20,B20,0.457
21,B21,1.28
22,B22,0.761
